From the supplement of paper PMC11417369 come the findings set out here.

± gives the standard deviation of the averaged measurements. The list shows a part of the results.

For the assay, the system named is PfAP2-EXP AP2 domain (GST-tagged). The assay can be described thus: gcPBM binding intensity (ln(normalized median fluorescence intensity)); higher = stronger DNA binding. The method, boiled down:
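Binding intensity is the highest Masliner-normalised natural-log median intensity over replicate spots in either probe orientation. To obtain it, GST-tagged P. falciparum DNA-binding domains made in E. coli were incubated for 1 h on an Agilent 4 × 180k array of primer-extended double-stranded 36-bp intergenic genomic probes plus negative controls. Detection used Alexa488 anti-GST antibody with scanning at 488 nm.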
“CTTTTTTTAATGATAACACACATGTTGTGCATAGAC [CACACA_site3270]”: the “gcPBM binding intensity (ln)” value worked out at 8.98 ± 0.16. “AAATAATTATTTATCACACATATGTATTTATATATA [CACACA_site4589]”: the “gcPBM binding intensity (ln)” value is 8.62 ± 0.45. For the sequence “AACATATATATAATATGTACATAATATATATAAATG [XGTACX_site1161]”, the “gcPBM binding intensity (ln)” value was 8.52 ± 0.3.

As to “ACATATATTTCAAAGTGTACGCACAATTTTTTTTAC [XGTACX_site6166]”, the “gcPBM binding intensity (ln)” value was 8.77 ± 0.25. In the case of “ATTTCAACAAATATAACACACAATGGATAAGAATAA [CACACA_site1974]” it was 8.84 ± 0.48; in that of “GTAAGAACACTTTTGTGGTTACTTAAAAGTGTATAT [GTGCAC_negctrl_site422]”, 8.27 ± 0.43.

Consider “TTATTATTTTTTAACACACACATATATATTATATCT [CACACA_site4906]”, for which the “gcPBM binding intensity (ln)” value amounted to 8.62 ± 0.4.

With “TTAGTTTCCCAAATATGTACATAAATATAAATCATA [XGTACX_site2746]”, the “gcPBM binding intensity (ln)” value is 8.58 ± 0.34. With “AATACAGTTAGAGAAAGTACACAACTAATATACATA [XGTACX_site8814]”, the “gcPBM binding intensity (ln)” value came to 8.72 ± 0.39. In the case of “TGCTTATATGTTGTTACACACTAAAATAGTTAGATA [CACACA_site1277]” it was 8.54 ± 0.47; in that of “AATACACGCAGACACACACACAAAAAAAAAAAAAAA [CACACA_site6384]”, 8.3 ± 0.4; in that of “ATTTTGTTATGAAACACACACATATAAATATAAATA [CACACA_site7679]”, 8.51 ± 0.3. The result for “AATTGTGCATTATATTGTACACGTGTTGTATATATT [XGTACX_site975]” reads 9.075 ± 0.078; that for “TTGAATATGGTTACATGTACGTATCAATATTTTTTA [XGTACX_site4247]”, 8.34 ± 0.43. The result for “TATATAAAACATGGGTGTACCAACATAAATCATATA [XGTACX_site2320]” reads 8.78 ± 0.43. For “TATACATTATTATTATGTACTTAAATATATATTATA [XGTACX_site5173]”, the “gcPBM binding intensity (ln)” value amounted to 8.35 ± 0.34.

Turning to “ATTAACACATTTAAGTGTACATATATAAATATATAT [XGTACX_site7098]”, the “gcPBM binding intensity (ln)” value came to 8.29 ± 0.26. In the case of “TGTGCACGTTCTGTGACACACATTTAAATGTGCTTA [CACACA_site176]” it was 8.62 ± 0.35; in that of “GGAACGTATATTTTCACACACTCTCAAAAGTACAAG [CACACA_site2301]”, 8.66 ± 0.37. The result for “GAAACAAAATTATTTTGTACATATGACTGTAGATAT [XGTACX_site972]” reads 8.8 ± 0.28.

For “ATATAACTCAAGGGCACACATATACCTTTCCTTTTT [CACACA_site4390]”, the “gcPBM binding intensity (ln)” value turned out to be 8.81 ± 0.43. The result for “ATATATATATATAGTTGTACTTAATTTTATATGTTA [XGTACX_site5256]” reads 10.2 ± 0.15; that for “AAACTTATAAAAAGTAGTACCATAAAATAATACATA [XGTACX_site6523]”, 8.36 ± 0.16. In the case of “TTTTACAAATATTACTGTACACATTTTCATATAATT [XGTACX_site17]” it was 8.73 ± 0.35. The result for “GTGAAATTATTTCCGTGTACACATAAATATATATTT [XGTACX_site3989]” reads 9.325 ± 0.021; that for “CCTTGATATATATAAAGTACATATATATATATATAT [XGTACX_site4325]”, 10.2 ± 0.24; that for “TATATTATTTATTAGACACACATTATTAAAATATTT [CACACA_site4737]”, 8.21 ± 0.31.

Regarding “TGTTGTATATCTCTATATAGCTATATTGTATATATA [TGCATGCA_negctrl_site323]”, the “gcPBM binding intensity (ln)” value was found to be 8.62 ± 0.38. In the case of “AGTATACAGATATATACACACATATTTATATTTATA [CACACA_site6394]” it was 8.22 ± 0.41. In the case of “CATACATACCTATATACACACATATAAAATAATATA [CACACA_site7290]” it was 8.66 ± 0.28.

In the case of “TCTATATGTTGATTCACACATAAAGAATAAATAAAA [CACACA_site6017]”, the “gcPBM binding intensity (ln)” value stood at 8.48 ± 0.45.

As to “GGCAACATTTGAAACACACACACATACAAACAAACA [CACACA_site3307]”, the “gcPBM binding intensity (ln)” value was found to be 8.94 ± 0.36.

“TGTTATTATTTGTACACACACATATATATCCTTGTT [CACACA_site3616]”: the “gcPBM binding intensity (ln)” value was 8.93 ± 0.3.

Consider “TATATGAACTTATATACACACCATTTTTGTAAATCT [CACACA_site4547]”, for which the “gcPBM binding intensity (ln)” value worked out at 8.38 ± 0.33. In the case of “AACACGCGCAGACACACACACACACCCACATATATA [CACACA_site2205]”, the “gcPBM binding intensity (ln)” value came out at 8.79 ± 0.59. In the case of “TATAATATATTATATACACACATTATGAAATCCACA [CACACA_site1330]” it was 8.57 ± 0.44; in that of “AAACAATACTGATATTGTACATAATAAAAAAAAATA [XGTACX_site3330]”, 8.63 ± 0.31; in that of ATTTTGATGCATGGGTTGCACTAACTTTTGCCCAGA, 8.74 ± 0.17. In the case of “ATAAATATATTTTATAGTACATAAATATCAAAAAAA [XGTACX_site2334]” it was 8.55 ± 0.28. In the case of “AAAATATGTATGTAAAGTACTAATATACAAATTTTT [XGTACX_site5186]” it was 8.37 ± 0.39; in that of “TTTTTTTTTTTTGATGCACACACCTGAACGAGTTAA [CACACA_site317]”, 8.62 ± 0.32. “TATTTTTATATATGACGTACTCTACAATTATTAATG [XGTACX_site5818]”: the “gcPBM binding intensity (ln)” value was 8.57 ± 0.36. The result for “TAGTCGTTTTTTTAATGTACTCACGCATAATATAAT [XGTACX_site6499]” reads 8.7 ± 0.33.

Regarding “ATATAAATATTCCACACACACACAAAAAAAAAAAAA [CACACA_site7678]”, the “gcPBM binding intensity (ln)” value is 8.32 ± 0.6.
